We go through 19 variants from the RNAGym collection of RNA variant scans (doi:10.1073/pnas.2313332121).

Variants at the background level are over-represented here.

The labels stand for the following.
B1: TPR 5TU (parent)
chain: GGAUCUUCUCGAUCUAACAAAAAAGACAAAUCUGCCACAAAGCUUGAGAGCAUCUUCGGAUGCAGAGGCGGCAGCCUUCGGUGGCGCGAUAGCGCCAACGUUCUCAACUAUGACACGCAAAACGCGUGCUCCGUUGAAUGGAGUUUAUCAUG

The series covers variants of B1. The series can be described thus: polymerase ribozyme fitness, log enrichment relative to wild type (log ratio); higher = more active; in vitro selection for triplet polymerase activity. The essentials:
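Frozen incubation at −7 °C formed the core of a single, triplicate in vitro selection round applied to PCR-built, transcribed mutant libraries of each subunit of a heterodimeric triplet polymerase ribozyme. Extended constructs were gel-excised, captured with streptavidin beads and amplified by RT-PCR, and input and output libraries were Illumina-sequenced with a filter of ≥10 input reads and ≥1 read per output. Fitness is the logarithm of genotype enrichment relative to wild-type enrichment, with inverse-variance-weighted replicate averaging, and the logarithm is base 2.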
Turning to GGAUCUUCUCGAUCUAACAGAAAAGACAAAUCUGCCACAAAGCUAGAGAUCAUCUUCGGAUGCAGAGGCGGCAGCCUUCGAUGGUGCGAUAGCGCCAACGUUCUCAACUAUGACACGCAAAACGCGUGCUCCAUUGAAUGGAGUUUAUCAUG [A20G U45A G50U G81A C85U G133A], the “polymerase ribozyme fitness (log ratio)” value is at most -4.2.

Regarding GGAUCUUCUCGAUCUAACAGAAAAGACAAAUCUGCCACAUAGCUUGAGAGCAUCUUCGGAUGCAGAGGCGGCACCCUUCGGUGGCGCGAUAGAGCCAACGUUCUCAACUAUGACACGCAAAACGCGUGCUCCGUUGAAUGGAGUUUAUCAUG [A20G A40U G74C C93A], the “polymerase ribozyme fitness (log ratio)” value is at most -4.2.

Regarding GGAUCUUCUCGAUCUAACACAAAAGACAAAUCUGCCACAAAGCUUGAAAGCAUCUUAGGAAACAGAGGCGGCAGCCUUCGGUGGCGCGAUAGCGCCAACGUUCUCAACUAUGACACACAAAACGCGUGCUCCGUUGAAUGGAGUUUAUCAUG [A20C G48A C57A U61A G62A G117A], the “polymerase ribozyme fitness (log ratio)” value is at most -4.2.

As for GGAUCUUCUCGAUCUAACAGAAAAGCCAAAUCUGCCACAAGGCUUGAGCGCAUCUUCGGAUGCAGAGGCGGCAGCCUUCGGUGGCGCAAUAGCGCCAACGUUCUCAACUCUGACACGCAAAACGCGUGCUCCGUUAAAUGGAGUUUAUCAUG [A20G A26C A41G A49C G88A A110C G136A], the “polymerase ribozyme fitness (log ratio)” value was at most -4.2.

As for GGAUCUUCUCGAUCUAACAGCAAAGACAAAUCUGCCACAAAGCUUGAGAGCAUCUUCGGAUGCAGAGGCGGCAGCCUUGGGUGGCGCGAUAGCGCCAACGUUCUCAACUAUGACACGCAAUACGCGUGCUCCGUUGAAUGGAGUUUAUCAUG [A20G A21C C79G A121U], the “polymerase ribozyme fitness (log ratio)” value is at most -4.2.

As for GGAUCUUCUCGAUCUAACAGUAAAGACAAAUCUGCCACAAAGCUUGAGAGCAUCUUCGGAUGCAGAGGCGGCAGCCUUCGGUGGCGCGAUAGGGCCUACGUUCUCAACUAUGACAUGCAAAACGCGUGCUCCGUUGAAUGGAGUUUAUCAUG [A20G A21U C93G A97U C116U], the “polymerase ribozyme fitness (log ratio)” value is at most -4.2.

GGAUCUUCUCGAUCUAACAGAAAAGACAAAUACGCCACAAAGCUUGAGAGCAUCGACGGAUGCAGAGGCGGCAGCCUUCGGUGUCGCGAUAGCGCCAACGGUUUGAACUAUGACACGCAAAACGCGUGCUCCGUUGAAUGGAAUUUAUCAUG [A20G C32A U33C U55G U56A G84U U101G C103U C105G G143A]: the “polymerase ribozyme fitness (log ratio)” value was at most -4.2.

As for GGAUCUUCUCGAUCUAACAGAAAAGAGAAAUCUGCCACAAAGCUUGGGAGCGUCUUCGGGAGCAGAGGCGGCAGCCUUCGGUGGCGCGAAGGGGCCAACGUUCUGAACUAUGACACGCAAAACGCGUGCUCCGUUGAAUGGAGUUUAUCAUG [A20G C27G A47G A52G A60G U61A U90A A91G C93G C105G], the “polymerase ribozyme fitness (log ratio)” value was at most -4.2.

With GGAUCUUCUCGAUCUAACAGAAAAGACAAAUCUGCCACAAAGCUUAAGAGCAUCUUCGGAUGCAGAGGCGGCAGCCUUCGGUGGCGCGAUAUCGCCAACGUUCUCAGCUAUGAAACGCAAAACGCGUGCUCCGUUGAAUGGAGUUUAUCAUG [A20G G46A G92U A107G C114A], the “polymerase ribozyme fitness (log ratio)” value was at most -4.2.

On to GGAUCUUCUCGAUCUAACACAAAAGACAAAUCUGCCACAAAGCUUGAGAGCAUCUUCGGAUGCAGAGACGGCAGCCUUUGGUGGAGCGAUAGCGCCAACGUUCUCAACUGUGACACGCAAAACGCGUGCUCCGUUGAAUGGAGUUUAUCAUG [A20C G68A C79U C85A A110G], for which the “polymerase ribozyme fitness (log ratio)” value is at most -4.2.

Consider GGAUCUUCUCGAUCUAACAGAAAAGACAGAUCUGCCACAAAGCUUGAGACCAACUACGGAUGCAGAGGCGGCAGCCUUCGGUGGCGCGAUAGCGCCAACGUUCUCAACGAUGACACGCAAAACGAGUGCUCCGUUAAAUGGAGGUUAUCAUG [A20G A29G G50C U53A U56A U109G C125A G136A U144G], for which the “polymerase ribozyme fitness (log ratio)” value was at most -4.2.

Consider GGAUCUUCUCGAUCUAACACAAAAGACAAAUCUGCCACAAAGCUUGAGAGCAUCUUCGAAUGCAGAGGCGGCAGCCUUCGGUGGCGCGAUAUCGCCUACGUUCUCAACUACGAGACGCAAAACGCGUGCUCCGUUGAAUGGAGUUUAUCAUG [A20C G59A G92U A97U U111C C114G], for which the “polymerase ribozyme fitness (log ratio)” value was at most -4.2.

With GGAUCUUCUCGAUCUAACAGAAAAGACAAAUCUGCCACAAAGCAUGAGAGCAUCUUCGGAUGCCGAGGCGGCAGCAUUCGGUGGCGCGAUAGCGCCAACGUUCUCAACUAUGACACGCAAAACGCGUGCUCCGUUGAAUGGACGUUAUCAUG [A20G U44A A64C C76A G143C U144G], the “polymerase ribozyme fitness (log ratio)” value is at most -4.2.

Take GGAUCUUCUCGAUCUAACAGAAAAGACAAAUCUGCCACAAAGCUUGAGAGCAUCUUCGGAUGCAGAGGCGGCAGCAUUCGAUGGCGGGAUAGCGCCAACGUUCUCAACUAUGACACGAAAAACGCGUGCUCCGUUGAGUGGAGUUUAUCAUG [A20G C76A G81A C87G C118A A138G]: the “polymerase ribozyme fitness (log ratio)” value was at most -4.2.

Consider GGAUCUUCUCGAUCUAACAGAAAAGACAAAUCUGCCACAACGCUUGGGAGCAUCUUCGGAUGCAGAGGCGGCAGCCUCCGGUGGCGCGAUAGCGCCAACGUUCUCAACUAUGACACGCAAAACGCGUGCUCCUUUGAAUGGAGCUUAUCAUG [A20G A41C A47G U78C G133U U144C], for which the “polymerase ribozyme fitness (log ratio)” value was at most -4.2.

With GGAUCUUCUCGAUCUAACACAAAAGACAAAUCAGCCACAAAGCAUGAGCGCAUCUUCGGAUGCAGAGGCGGCAGCCUUCGGUGGCGCGAUAUCGCCGACGUUCUCAACUAUGACACGCAAAACGCGAGCUCCGUUGAAUGGAGUUUAUCAUG [A20C U33A U44A A49C G92U A97G U127A], the “polymerase ribozyme fitness (log ratio)” value was at most -4.2.

Turning to GGAUCUUCUCGAUCUAACAGAAAAGACAAAUCUGCCACAAAGCUUGAGAGCAUCUUCGAAUGCAGAGCCGGCAGCCUUCGGUGGCGCGAUAGCACCAACGUUCUCAACUAUGACACGCAAAACGCGUCCUCCGUUGAAUGGAGUUUAUCAUG [A20G G59A G68C G94A G128C], the “polymerase ribozyme fitness (log ratio)” value was at most -4.2.

Take GGAUCUUCUCGAUCUAACACAAAAGACAAAUCUGCCACAAAGCUUGAGAGCAUCGUCGGGUGCAGAGGCGGCAGCCUUCGGUGGCGCGAGAGCGCAAACGUUCUCAACUAUGACACGCAAAACGCGUGCUCCGUUGAAUGGAGUUUAUCAUG [A20C U55G A60G U90G C96A]: the “polymerase ribozyme fitness (log ratio)” value was at most -4.2.

Turning to GGAUCUUCUCGAUCUAACAGAAAAGACAAAUCUGCCACAAAGCUUGAGAGGAUCUUCGGAUGCAGACGCGGCAGCCUUCGGUAGCGAGAUAGCGCCAACGUUCUCAACUAUGACACGCAAAACGCGUGCUCCGUUGAAUGGAGUUUAUCAUG [A20G C51G G67C G83A C87A], the “polymerase ribozyme fitness (log ratio)” value is at most -4.2.
